The labels stand for the following.
B1: argH V345A (protein)
chain: MALWGGRFTQAADQRFKQFNDSLRFDYRLAEQDIVGSVAWSKALVTVGVLTAEEQAQLEEALNVLLEDVRARPQQILESDAEDIHSWVEGKLIDKVGQLGKKLHTGRSRNDQVATDLKLWCKDTVSELLTANRQLQSALVETAQNNQDAVMPGYTHLQRAQPVTFAHWCLAYVEMLARDESRLQDALKRLDVSPLGCGALAGTAYEIDREQLAGWLGFASATRNSLDSVSDRDHVLELLSAAAIGMVHLSRFAEDLIFFNTGEAGFVELSDRVTSGSSLMPQKKNPDALELIRGKCGRVQGALTGMMMTLKGLPLAYNKDMQEDKEGLFDALDTWLDCLHMAALALDGIQVKRPRCQEAAQQGYANATELADYLVAKGVPFREAHHIVGEAVVEAIRQGKPLEDLPLSELQKFSQVIDEDVYPILSLQSCLDKRAAKGGVSPQQVAQAIAFAQARLG
B2: argH V345W (protein)
chain: B1 chain with A345W
B3: argH V345D (protein)
chain: B1 chain with A345D
B4: argH V345P (protein)
chain: B1 chain with A345P
B5: argH V345Q (protein)
chain: B1 chain with A345Q
B6: ilvA M70Q (protein)
chain: MADSQPLSGAPEGAEYLRAVLRAPVYEAAQVTPLQKMEKLSSRLDNVILVKREDRQPVHSFKLRGAYAMQAGLTEEQKAHGVITASAGNHAQGVAFSSARLGVKALIVMPTATADIKVDAVRGFGGEVLLHGANFDEAKAKAIELSQQQGFTWVPPFDHPMVIAGQGTLALELLQQDAHLDRVFVPVGGGGLAAGVAVLIKQLMPQIKVIAVEAEDSACLKAALDAGHPVDLPRVGLFAEGVAVKRIGDETFRLCQEYLDDIITVDSDAICAAMKDLFEDVRAVAEPSGALALAGMKKYIALHNIRGERLAHILSGANVNFHGLRYVSERCELGEQREALLAVTIPEEKGSFLKFCQLLGGRSVTEFNYRFADAKNACIFVGVRLSRGLEERKEILQMLNDGGYSVVDLSDDEMAKLHVRYMVGGRPSHPLQERLYSFEFPESPGALLRFLNTLGTYWNISLFHYRSHGTDYGRVLAAFELGDHEPDFETRLNELGYDCHDETNNPAFRFFLAG
B7: ilvA I83A (protein)
chain: B6 chain with Q70M, I83A
B8: ilvA V154D (protein)
chain: B6 chain with Q70M, V154D
B9: ilvA I83Q (protein)
chain: B6 chain with Q70M, I83Q
B10: ilvA I83P (protein)
chain: B6 chain with Q70M, I83P

Numbering of substitutions follows the chain as printed. Numbers in names are those of the source. ± gives the standard deviation of the averaged measurements. Laboratory Escherichia coli strains with one amino-acid change in an essential protein, pooled on minimal glucose agar with carbenicillin or gentamicin at twice the control MIC (plus kanamycin and chloramphenicol for the plasmids), 48 h. Fold change of barcode share against drug-free plates; higher = less susceptible. Active = above 20 in both replicates (the paper's putatively resistant). '<' = one read or none on drug, '>' = one read or none on a drug-free plate. Shares are relative, so most strains fall below 1 when a few take over. Listed are strains with at least 15 reads on both drug-free plates, and hits; most hits rest on fewer reference reads. Replicate rank correlation about 0.5. Edits are read from barcodes.

The first series addresses Escherichia coli (laboratory strain). The experiment in a line: barcode share on antibiotic plates over drug-free plates; higher = less susceptible. The following applies: antibiotic: carbenicillin; 2× MIC (3.1 µg/mL). On the procedure:
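A pool of E. coli strains, each edited to carry one amino-acid change in an essential protein, was grown for 48 h on minimal glucose agar with or without antibiotic; strain barcodes were sequenced; mean of two replicates.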
B1: the “fold change of barcode share” value worked out at 0.328 ± 0.013.
Regarding B2, the “fold change of barcode share” value is 0.592 ± 0.24.
Turning to B3, the “fold change of barcode share” value turned out to be 0.526 ± 0.38.
The same measure, in the same setting: to B4 belongs 0.41 ± 0.06; to B5, 0.498 ± 0.12.
On to B6, for which the “fold change of barcode share” value was found to be 0.472 ± 0.14.
Consider B7, for which the “fold change of barcode share” value came out at 0.782 ± 0.04.
For the protein B8, the “fold change of barcode share” value was 29.3 [active].
For B9, the “fold change of barcode share” value is 21.4 [active].
Same read-out and setting: the value for B10 was 28.2 [active].

The same series, now with this note: antibiotic: gentamicin; 2× MIC (MIC 0.45 µg/mL).
As to B1, the “fold change of barcode share” value was 0.00854 ± 0.00058.
On to B2, for which the “fold change of barcode share” value was 0.0506 ± 0.062.
Take B3: the “fold change of barcode share” value was determined as 0.00805 ± 0.0085.
The same measure, in the same setting: the value for B4 was 0.0111 ± 0.01; that for B5 was 0.0141 ± 0.0099.
Still for that read-out and setting: the value for B6 was 0.0101 ± 0.0056; that for B7 was 0.205 ± 0.24.

The record behind these values is the supplement of paper PMC11876631.
